In PubChem BioAssay AID504466 (National Center for Advancing Translational Sciences (NCATS), 2011):
The campaign covered roughly 330,000 compounds. About 4,200 (1.3%) were called active. Inconclusive results, whose numbers are uncertain, are shown with a selection of clear calls. Calls follow the shape of the dose curve; as a rule, active = well fitted activation curve with a large enough effect; inconclusive = small, poorly fitted or top-dose-only effect; inactive = no such curve, though single readings can be large or run the other way. A potency beside an inconclusive call is a rough fit, not a confirmed value.

Assay: qHTS screen for small molecules that induce genotoxicity in human embryonic kidney (HEK293T) cells expressing luciferase-tagged ELG1; also: nearly all actives have a fitted effect of over 60% in size
Details: HEK293T ELG1-luciferase reporter, luminescence, 16 h; series mostly up to 46 µM
In short: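 HEK293T cells expressing luciferase-tagged ELG1 were exposed to compound or DMSO vehicle for 16 hr at 37 °C and 5% CO2. Luciferase activity was then measured with ONE-Glo after 30 min at room temperature.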
Potency is read from the fitted curve at half-maximal effect; tags tell the direction and shape of the fitted curve.

Structure (SMILES) | Potency
COc1ccc(Nc2cc(Nc3cccc(OC)c3)ncn2)cc1 | inconclusive: 18.3 µM [activator, partial curve, poor fit]
CC(Oc1ccccc1F)C(=O)NNC(=O)CCNC(=O)c1ccco1 (configuration not stated) | inactive
Cc1ccc(NC(=O)C(=S)NCc2ccco2)cc1 | inconclusive: 20.6 µM [activator, partial curve]
O=C(Nc1ccc(N2CCOCC2)c(Cl)c1)c1ccccc1F | active: 5.17 µM
COc1cccc2cc(C(=O)NCc3ccco3)c(=Nc3ccc(C(=O)O)cc3)oc12 | active: 20.6 µM
O=C(COc1ccccc1)N1CCc2ccccc21 | inconclusive: 23.1 µM [activator, partial curve]
Cc1nc(N2CCCCC2)c2c(C)c(C(=O)Nc3cccc(C(F)(F)F)c3)sc2n1 | inactive
CCOc1ccc(N(CC(=O)N2CCN(Cc3ccccc3)CC2)S(C)(=O)=O)cc1 | inactive
O=C1CCCCC1C(=O)c1cn(-c2ccc(Cl)c(Cl)c2)nn1 (configuration not stated) | inconclusive: 23.1 µM [activator, single point]
COC(=O)c1ccc(-c2ccc(Cl)cc2)nc1C | active: 8.2 µM
CCC(=O)Nc1ccc(NC(=O)c2ccco2)c(OC)c1 | inconclusive: 20.6 µM [activator, partial curve, poor fit]
Cc1ccc(OCCOc2ccc(Br)cc2)c([N+](=O)[O-])n1 | inconclusive: 16.4 µM [activator, partial curve]
Cc1cc(O)ccc1N/C=C1\CCCC1=O | inconclusive: 20.6 µM [activator, partial curve, poor fit]
O=C(Nc1nccs1)c1ccc(-c2ccc(Cl)cc2Cl)o1 | inconclusive: 3.26 µM [activator, full curve, poor fit]
C/C(=C\C(=O)O)C(=O)Nc1nccs1 | inactive
CC(=O)Nc1ccc(/C=C/c2nc3ccccc3[nH]c2=O)cc1 | inconclusive: 20.6 µM [activator, partial curve]
CC1CCN(S(=O)(=O)c2cc(C(=O)NC3(C)CCS(=O)(=O)C3)ccc2Br)CC1 (configuration not stated) | inactive
Cc1ccc(-n2nc3ccc(N)cc3n2)cc1 | active: 1.41 µM
CCOC(=O)c1sc(NC(=O)CSc2nccn2C)nc1C | active: 20.6 µM
Cc1ccc(NC(=O)CN(C)C(=S)NC2CC2)cc1 | inactive
Cc1ccn2c(c1)nc(=S)n2C(=O)c1ccco1 | inconclusive: 9.2 µM [activator, partial curve]
O=C(N/N=C\c1ccc([N+](=O)[O-])s1)C1COc2ccccc2O1 (configuration not stated) | inactive
Cc1onc(-c2ccccc2)c1C(=O)Nc1nc(-c2cc(F)ccc2F)cs1 | inconclusive: 18.4 µM [activator, single point]
Cc1ccc(S(=O)(=O)NCCC(c2ccccc2)c2ccco2)cc1 (configuration not stated) | inactive
O=C(/C=C/c1ccco1)c1cccnc1 | inactive
Cc1cc(N/N=C/c2cccc(Br)c2)nc2ccccc12 | inconclusive: 16.4 µM [activator, partial curve]

Structure (SMILES) | Potency
Cc1cnc(C(=O)OCC(=O)Nc2ccc(OCc3ccccc3)cc2)cn1 | inconclusive: 18.3 µM [activator, partial curve]
COc1ccc(-c2cc(CCCC(=O)NCCc3ccccc3)no2)cc1 | inactive
CC1=C(C(=O)Nc2ccccc2)C(c2ccc(C)cc2)N=C(Nc2nc3ccccc3o2)N1 (configuration not stated) | inconclusive: 32.6 µM [activator, single point]
CCN(CC)C(=O)c1ccccc1NC(=O)c1cccc(S(=O)(=O)N(CC)CC)c1 | inactive
CCOC(=O)c1ccc(NC(=O)c2cccc(S(=O)(=O)N3CCOCC3)c2)cc1 | inactive
Cc1ccc(-c2cc(C(=O)OCC(=O)N(C)c3c(N)n(Cc4ccccc4)c(=O)[nH]c3=O)c3ccccc3n2)o1 | inconclusive: 16.4 µM [activator, partial curve, poor fit]
CCn1c(-c2ccc(N)cc2)nc2ccccc21 | inconclusive: 23.1 µM [activator, single point]
CCOc1cc(/C=C2\SC(=S)N(Nc3ccccc3)C2=O)ccc1O | inconclusive: 32.6 µM [activator, partial curve, poor fit]
COc1ccc(-c2cc3ccc(OC(C)C(=O)O)cc3oc2=O)cc1 (configuration not stated) | inconclusive: 20.6 µM [activator, partial curve, poor fit]
Cc1cc(C(=O)CSc2ccc(F)cc2)cc(C)c1O | inconclusive: 14.6 µM [activator, single point]
Cc1cc(C(=O)NC2Cc3ccccc3C2)c(C)o1 | inconclusive: 16.4 µM [activator, partial curve]
COC(=O)c1ccc2c(c1)SC1=C(CCCC1=O)N2 | active: 20.6 µM
Nc1nnnn1/N=C/C=C/c1ccccc1 | inconclusive: 23.1 µM [activator, partial curve, poor fit]
CCC(=O)N/N=C/c1ccc(OS(=O)(=O)c2ccccc2)cc1 | inactive
Cc1ccc(OC(=O)c2ccncc2)c(C)c1 | inactive
O=C(Cc1ccccc1)NNc1ccc2ccccc2c1 | inconclusive: 18.3 µM [activator, partial curve, poor fit]
COc1cc(C(=O)Nc2ccc3c(c2)OCCO3)ccc1OC(F)F | inconclusive: 2.59 µM [activator, partial curve, poor fit]
CCn1c(SCC(=O)NCCc2ccccc2)nc2c([nH]c3ccccc32)c1=O | inconclusive: 29.1 µM [activator, single point]
O=C(CSc1n[nH]c(-c2ccccc2)n1)c1ccccc1 | inconclusive: 23.1 µM [activator, single point]
Cc1cc(C)n2cc(-c3ccc(Cl)cc3)c(C(=O)O)c2n1 | active: 16.4 µM
COc1ccccc1C(=O)NC(CCSC)C(=O)NCCCn1nc(C)cc1C (configuration not stated) | inactive
Cc1occc1C(=O)N/N=C/C(Br)=C\c1ccccc1 | inconclusive: 2.31 µM [activator, partial curve]
CCOc1ccccc1NC(=O)Cn1nnc(-c2ccc(OCC)c(OCC)c2)n1 | inconclusive: 29.1 µM [activator, partial curve, poor fit]
COc1cc(OC)c2c(-c3cccc(-c4ccc(N(C)C)cc4)c3)cc(=O)oc2c1 | active: 2.59 µM
Cn1c(CNC(=O)CNC(=O)c2ccc(F)cc2)cc(=O)n(C)c1=O | inactive
CSc1nc2ccc(NC(=O)CSc3nnc(N)s3)cc2s1 | inconclusive: 18.4 µM [activator, partial curve]

Structure (SMILES) | Potency
CC(C)(C)c1ccc(OC(=O)N2CCOCC2)cc1 | inconclusive: 18.3 µM [activator, partial curve, poor fit]
CC1CCN(C(=O)CSc2nnc3ccccn23)CC1 | inconclusive: 29.1 µM [activator, partial curve, poor fit]
CCN1CC(CNCc2cn(-c3ccc(OC)cc3)nc2-c2ccccc2Cl)CC1=O (configuration not stated) | inactive
COc1ccc(NC(=O)O/N=C/c2c(C)nn(C(C)(C)C)c2C)cc1 | active: 1.64 µM
CCn1c(CNC(C)=O)nnc1SCC(=O)c1ccc(Br)cc1 | inactive
Cc1cc(C(=O)Cn2nnc3ccccc3c2=O)c(C)n1-c1ccccc1F | inconclusive: 0.731 µM [activator, partial curve]
Cc1cccc(Oc2coc3cc(OC(=O)c4cccs4)ccc3c2=O)c1 | inconclusive: 20.6 µM [activator, partial curve, poor fit]
Cn1cc(Cl)c(C(=O)Nc2nc3ccccc3s2)n1 | active: 0.461 µM
CCC(=O)NC(=S)Nc1ccc(-c2nc3ccc(C)cc3s2)cc1 | inconclusive: 8.2 µM [activator, partial curve]
O=C(CSc1nnnn1C1CCCC1)N1CCCCC1 | inconclusive: 16.4 µM [activator, partial curve]
O=C(Nc1nnc(C2CCCCC2)s1)c1ccco1 | inconclusive: 5.8 µM [activator, partial curve]
CC1(C)Cc2c(cnn2-c2ccccc2)C(NC(=O)CCCN2CCCC2=O)C1 (configuration not stated) | inactive
Cc1ccccc1Nc1nc(-c2sc(NC(=O)c3ccccc3)nc2C)cs1 | inactive
CCOc1ccc(/C=C2/C(=O)N(c3ccc(OC)cc3)C(=S)N2CC(=O)OC)cc1OCC | inconclusive: 20.6 µM [activator, single point]
Cc1occc1C(=O)N/N=C/c1cccc2ccccc12 | active: 7.3 µM
Nc1nnc(SCC(=O)Nc2ccc(N3CCOCC3)cc2)s1 | inconclusive: 10.3 µM [activator, partial curve]
Cc1ccnc(NC(=O)C2COc3ccccc3O2)c1 (configuration not stated) | inconclusive: 2.59 µM [activator, single point]
COc1ccc(CCN(C)C(=O)Cn2c(=O)oc3ccccc32)cc1OC | inactive
C=CCN1C(c2ccccc2)=CS/C1=C(\C#N)c1nnc2n1CCCCC2 | inactive
Cc1c(CCC(=O)N2CCC[C@H]2C(=O)O)c(=O)oc2cc3oc4c(c3cc12)CCCC4 | inconclusive: 23.1 µM [activator, partial curve, poor fit]
O=C(c1cc(-c2ccc(Br)cc2)nc2ccccc12)N1CCC1 | inactive
CC(NC(=O)c1cnccn1)c1ccc(S(N)(=O)=O)cc1 (configuration not stated) | inactive
Cc1cc2occ(CC(=O)N(C)CC(=O)Nc3ccccc3Br)c2cc1C | inactive
O=C(Nc1ccc(CN2CCOCC2)cc1)c1ccc(Br)o1 | inconclusive: 10.3 µM [activator, partial curve]
O=C(O)c1ccc(N/N=C/c2ccc(F)c(F)c2)cc1 | active: 5.17 µM
